# Source: PMC4336329 (PLoS ONE, 2015)
# Out of some 310,000 compounds screened, about 2,200 (0.71%) showed an effect of 50% or more. The effect is printed as a negative number. Some of the results follow.
# Target: human ether-à-go-go-related gene (hERG) potassium channel (human, UniProt Q12809)
# Experiment: primary screen, population patch clamp on CHO cells stably expressing hERG
# Chain of human ether-à-go-go-related gene (hERG) potassium channel (Q12809 whole entry, looked up): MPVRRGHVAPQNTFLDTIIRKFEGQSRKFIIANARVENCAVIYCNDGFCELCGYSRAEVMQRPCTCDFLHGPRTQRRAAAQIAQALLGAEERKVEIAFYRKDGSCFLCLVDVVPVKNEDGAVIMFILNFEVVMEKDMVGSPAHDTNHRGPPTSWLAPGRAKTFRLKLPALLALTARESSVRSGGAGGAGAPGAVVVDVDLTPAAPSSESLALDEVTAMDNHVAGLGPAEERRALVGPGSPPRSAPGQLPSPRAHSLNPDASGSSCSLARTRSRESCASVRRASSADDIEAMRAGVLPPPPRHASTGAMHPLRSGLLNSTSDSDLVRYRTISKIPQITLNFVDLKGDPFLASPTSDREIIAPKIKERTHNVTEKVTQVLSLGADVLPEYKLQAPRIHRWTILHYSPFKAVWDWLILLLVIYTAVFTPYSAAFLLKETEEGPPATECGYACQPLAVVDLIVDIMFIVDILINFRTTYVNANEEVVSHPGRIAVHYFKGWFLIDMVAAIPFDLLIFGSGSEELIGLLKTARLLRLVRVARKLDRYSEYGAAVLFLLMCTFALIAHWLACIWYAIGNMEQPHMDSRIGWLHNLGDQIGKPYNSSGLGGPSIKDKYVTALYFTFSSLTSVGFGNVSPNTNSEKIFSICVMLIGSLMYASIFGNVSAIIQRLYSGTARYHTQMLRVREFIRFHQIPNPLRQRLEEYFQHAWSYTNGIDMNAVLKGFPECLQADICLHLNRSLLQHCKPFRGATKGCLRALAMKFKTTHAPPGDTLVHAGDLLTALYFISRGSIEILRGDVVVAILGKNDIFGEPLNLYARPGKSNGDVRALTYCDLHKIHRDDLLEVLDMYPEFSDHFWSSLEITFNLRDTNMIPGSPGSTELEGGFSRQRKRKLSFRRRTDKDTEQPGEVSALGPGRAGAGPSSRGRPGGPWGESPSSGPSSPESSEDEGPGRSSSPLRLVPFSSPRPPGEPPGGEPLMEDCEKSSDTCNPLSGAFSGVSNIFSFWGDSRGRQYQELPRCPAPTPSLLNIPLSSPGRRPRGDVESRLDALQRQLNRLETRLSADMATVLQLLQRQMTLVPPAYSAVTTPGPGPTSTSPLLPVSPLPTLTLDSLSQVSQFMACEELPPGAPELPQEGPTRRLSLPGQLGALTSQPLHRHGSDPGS
row,Structure (SMILES),"hERG current change (%, negative = inhibition) at 1uM [%]"
1,CCC1(COC(NC(=O)c2cccnc2)(C(F)(F)F)C(F)(F)F)COC1,11.3
2,COc1cccc(NC(=O)c2cccc(N3C(=O)C4C5C=CC(C5)C4C3=O)c2)c1 (stereo not drawn),-11.2
3,CCOC(=O)CSC1=C(C#N)C(c2ccco2)C(C(=O)Nc2cccc(C(F)(F)F)c2)=C(C)N1 (stereo not drawn),0.998
4,O=C(Nc1ccc(S(=O)(=O)Nc2ccnn2-c2ccccc2)cc1)C(F)(F)F,12.3
5,O=C(Nc1cccs1)Nc1ccc(Br)cc1F,7.79
6,COCCN(C(=O)CSCc1ccc(C)cc1)c1c(N)n(CC(C)C)c(=O)[nH]c1=O,12.6
7,O=C(c1ccco1)N1CCN(C(=O)c2cc(-c3ccccc3F)no2)CC1,1.43
8,CCOC(=O)c1nnn(-c2nonc2-n2cccc2)c1-c1cccc([N+](=O)[O-])c1,10.1
9,CN(C)CCCN(C(=O)c1ccc(C(=O)c2ccccc2)cc1)c1nc2ccc(F)cc2s1,-6.93
10,CCCCC(=O)NCc1ccc2c(c1)cc(C)n2C,17.8
11,Cc1c(NC(=O)C(C)OC(=O)c2sc3ccccc3c2Cl)c(=O)n(-c2ccccc2)n1C (stereo not drawn),11.8
12,Cn1c(=O)c2[nH]c(N3CCCCC3)nc2n(C)c1=O,12
13,C/C(=N\NC(=O)Cc1c(C)[nH][nH]c1=O)c1ccc2ccccc2c1,12.5
14,COc1ccc(CNC(=O)Cc2cn(C)c3ccccc23)c(OC)c1,7.04
15,O=c1[nH]c2ccccc2cc1-c1noc(-c2cccnc2)n1,7.64
16,COc1ccc(NC(=O)c2ccccc2NC(=O)NC2CCCCC2)cc1,7.18
17,CN1C[C@@H]2C[C@@H](c3cccn3-c3nccs3)N3CCC[C@@]23C1=O,1.26
18,Cc1ccc(C(=O)Nc2ccccc2N2CCCC2)s1,19.9
19,CCCN(CC(=O)Nc1ccccc1OC)C(=O)CSc1nc(C)cc(C)n1,11.9
20,CCC(C)(C)n1nnnc1CN(Cc1cc2cc(OC)c(OC)cc2[nH]c1=O)C1CCCC1,9.59
21,COc1ccc(N2CCN(C(CNS(=O)(=O)c3cccs3)c3cccnc3)CC2)cc1 (stereo not drawn),-45.2
22,CC1CCCC(NC(=O)c2ccc3c(c2)OCCO3)C1C (stereo not drawn),11.9

row,Structure (SMILES),"hERG current change (%, negative = inhibition) at 1uM [%]"
1,Cc1cc(N2CCN(C)CC2)nc2ccccc12,8.97
2,COc1ccccc1NC(=O)c1ccc2c(c1)CCN2S(C)(=O)=O,11.8
3,CC(C)c1nc(SCC(=O)Nc2ccc(C(=O)O)cc2)c2c3c(sc2n1)CCCC3,6.47
4,O=C(Cn1c(-c2ccccc2)noc1=O)Nc1ccc(N2CCCCCC2)cc1,7.16
5,CCCCN(C)CCNC(=O)CCn1nc(-c2ccc(C)cc2)ccc1=O,-21.4
6,COc1ccccc1NS(=O)(=O)c1cc(C(=O)NCc2cccnc2)ccc1C,-12.2
7,CC(Sc1n[nH]c(N)n1)C(=O)C12CC3CC(CC(C3)C1)C2 (stereo not drawn),-5.1
8,CCOC(=O)N1CCN(C(=O)CCc2ccc(S(=O)(=O)NC(C)C)cc2)CC1,10.5
9,COc1ccccc1CC1CC(=O)N(c2cccc(Cl)c2C)C1=O (stereo not drawn),12
10,O=C(Nc1ccc2c(c1)OCCO2)C1CC(c2ccccc2Cl)=NO1 (stereo not drawn),7.32
11,COc1ccc(NC(=O)CSc2ccc(F)cc2)cc1S(=O)(=O)N1CCCCC1,13.1
12,CC(=O)c1ccc(S(=O)(=O)NCCC(=O)NC(C)c2ccncc2)cc1 (stereo not drawn),11.8
13,O=C(COc1ccc(/C=N/NC(=O)c2cc3ccccc3o2)cc1Cl)Nc1ccccc1,11.1
14,O=C(Cn1c(=O)oc2ccccc21)NC(=O)NCc1ccccc1,7.69
15,Cc1ccccc1OCC(=O)NNC=O,14.6
16,CN(CC(=O)Nc1ccc2c(c1)OCO2)S(=O)(=O)c1ccc2c(c1)CCC(=O)N2,7.8
17,CCOc1cc2[nH]c(=S)n(CC3CCCN3CC)c(=O)c2cc1OCC (stereo not drawn),-2
18,COc1ccc(Cl)cc1NC(=O)NNC(=O)c1ccccn1,15.2
19,Cc1ccc(N=Cc2ccc(N(C)C)cc2)cc1C,6.05
20,COc1cc(OC)c(/C=C2\C(=O)Nc3ccccc32)c(OC)c1,5.79
21,Cc1ccc(CNC(=O)C(=O)NCC2OCCCN2S(=O)(=O)c2ccc(F)cc2)cc1 (stereo not drawn),12.4
22,COCCn1cnnc1SCC(=O)Nc1cccc(S(=O)(=O)N(C)c2ccccc2)c1,-5.05

row,Structure (SMILES),"hERG current change (%, negative = inhibition) at 1uM [%]"
1,COc1cccc(CC(NC(C)=O)C(=O)NC2CCN(c3nnnn3-c3ccccc3)CC2)c1 (stereo not drawn),6.82
2,O=S(=O)(Nc1cc(C(F)(F)F)ccc1N1CCOCC1)c1ccc2ccccc2c1,3.54
3,Cc1cccc(C2Nc3ccccc3C(=O)N2CCc2ccccc2)n1 (stereo not drawn),-4.25
4,Cl.Nc1cccc2c3c(oc12)CCCC3,18.5
5,C/C=C\C(=O)Nc1cccc(C2=NOC3(C2)C[C@@H](C(N)=O)N(C(=O)CCCCC)C3)c1 (stereo partly drawn),-1.83
6,CN(CC(=O)Nc1ccccc1Cl)CC(=O)c1c(N)n(Cc2ccccc2)c(=O)n(C)c1=O,4.57
7,COc1c2ccoc2c(OC[C@@H](OC(C)=O)C(C)(C)O)c2oc(=O)ccc12,16.4
8,O=c1oc2cc(S(=O)(=O)NCCCO)ccc2c2ccc(S(=O)(=O)NCCCO)cc12,18.3
9,CC12CC(c3ccccc3O1)N(C(=O)c1ccco1)C(=O)N2c1ccccc1 (stereo not drawn),5.54
10,CSc1ccc(CN2CCN(CCC(C)C)C(CCO)C2)cc1 (stereo not drawn),-10.2
11,CCOc1ccc(S(=O)(=O)N2CCN(C(=O)c3cc4c(s3)CCCC4)CC2)cc1,3.05
12,CN(CC(=O)N1CCC(C(N)=O)CC1)S(=O)(=O)c1ccc2ccccc2c1,11.5
13,COc1cc(/C=C/C(=O)OCC(=O)Nc2ccc(S(N)(=O)=O)cc2)ccc1O,8.9
14,CC1CC(C)CN(S(=O)(=O)c2ccc3oc(=O)ccc3c2)C1 (stereo not drawn),-13.3
15,Cc1ccc(C(=O)Nc2ccncc2)cc1[N+](=O)[O-],9.07
16,CC(C)Cn1cnc2c1c(=O)n(CC(=O)O)c(=O)n2Cc1ccccc1,10.6
17,O=C(O)C(=O)O.S=C(NCCc1ccccc1)N1CCN(Cc2ccccc2)CC1,1.07
18,Cc1ccc2c(c1)N(S(=O)(=O)c1ccc3c(c1)NC(=O)CC(=O)N3)CCO2,9.44
19,C/C(=N\Nc1nncc2ccccc12)c1ccc(C(C)(C)C)cc1,12.5
20,O=c1cc(CO)oc(C(Nc2ccccn2)c2ccc(C(F)(F)F)cc2)c1O (stereo not drawn),7.36
21,O=C(NC1CC2CCC(C1)N2C(=O)NC1CCCCC1)NC12CC3CC(CC(C3)C1)C2 (stereo not drawn),1.76
22,Oc1ccc(C2N=C(c3ccccc3)NC(c3ccccc3)=N2)cc1,0.483

row,Structure (SMILES),"hERG current change (%, negative = inhibition) at 1uM [%]"
1,Cc1cccc(NS(=O)(=O)c2ccc3c(c2)NC(=O)CO3)c1C,13.5
2,COc1ccc(N2C(=O)CSC23CCC(C(C)(C)C)CC3)cc1 (stereo not drawn),0.138
3,COCCn1c(SCC(=O)N2CCCC2)nnc1-c1ccoc1C,9.72
4,O=C(Cc1c(F)cccc1Cl)NNC(=O)c1ccncc1,6.57
5,CN(C)c1nnc(-c2ccc(Cl)cc2)o1,10.9
6,COC(=O)C1CCN(CC(=O)Nc2cc(Cl)ccc2OC)CC1,2.12
7,Cc1cc(-c2nnc(CCC(=O)N(C)Cc3ccsc3)o2)no1,14.7
8,CCCCNC(=O)Cn1cnc2ccc(S(=O)(=O)N3CCC(C)CC3)cc2c1=O,7.11
9,O=C(Nc1cccc(S(=O)(=O)N2CCCCC2)c1)C1CC1,8.36
10,COc1ccccc1-c1cc(C(F)(F)F)nc(N2CCOCC2)n1,16
11,COCCOc1ccc(C(F)(F)F)cc1NC(=O)Cc1ccc(S(=O)(=O)N2CCOCC2)s1,7.35
12,COc1cc(/C=N/N=C2/C(=O)Nc3ccccc32)ccc1O,10.1
13,CN(Cc1cnccn1)C(=O)CC1C(=O)NCCN1CC(c1ccccc1)c1ccccc1 (stereo not drawn),5.94
14,CCOC(=O)c1cnc2cc3c(cn2c1=O)CCCC3,3.95
15,NS(=O)(=O)c1ccc(CCNC(=O)CSc2ccsc2[N+](=O)[O-])cc1,3.73
16,O=c1[nH]ncc(N2CCCCC2)c1Cl,8.78
17,Cc1cc(C(C)(C)C)oc1C(=O)N(CC(=O)NC1CCCC1)Cc1ccc(Cl)cc1,2.45
18,C/C(=N\NC(=O)c1ccc(Cl)c(Cl)c1)c1ccccn1,18.4
19,Cc1cc(F)ccc1S(=O)(=O)N1CCCOC1CNC(=O)C(=O)NCCCN1CCOCC1 (stereo not drawn),17.9
20,Oc1ccc(/C=N/N(c2ccccc2)c2ccccc2)c(O)c1O,17.8
21,CC(C)NS(=O)(=O)c1ccc2c(c1)NCC2,19.3
